# Reference: article PMC4336329 (PLoS ONE, 2015)
# The whole screen tested about 310,000 compounds, of which about 2,200 (0.71%) showed an effect of 50% or more. Effects have a minus sign here. Some of the results follow.
# Biological target: human ether-à-go-go-related gene (hERG) potassium channel (human, UniProt Q12809)
# Test: primary screen, population patch clamp on CHO cells stably expressing hERG
# Chain of human ether-à-go-go-related gene (hERG) potassium channel (Q12809 whole entry, looked up): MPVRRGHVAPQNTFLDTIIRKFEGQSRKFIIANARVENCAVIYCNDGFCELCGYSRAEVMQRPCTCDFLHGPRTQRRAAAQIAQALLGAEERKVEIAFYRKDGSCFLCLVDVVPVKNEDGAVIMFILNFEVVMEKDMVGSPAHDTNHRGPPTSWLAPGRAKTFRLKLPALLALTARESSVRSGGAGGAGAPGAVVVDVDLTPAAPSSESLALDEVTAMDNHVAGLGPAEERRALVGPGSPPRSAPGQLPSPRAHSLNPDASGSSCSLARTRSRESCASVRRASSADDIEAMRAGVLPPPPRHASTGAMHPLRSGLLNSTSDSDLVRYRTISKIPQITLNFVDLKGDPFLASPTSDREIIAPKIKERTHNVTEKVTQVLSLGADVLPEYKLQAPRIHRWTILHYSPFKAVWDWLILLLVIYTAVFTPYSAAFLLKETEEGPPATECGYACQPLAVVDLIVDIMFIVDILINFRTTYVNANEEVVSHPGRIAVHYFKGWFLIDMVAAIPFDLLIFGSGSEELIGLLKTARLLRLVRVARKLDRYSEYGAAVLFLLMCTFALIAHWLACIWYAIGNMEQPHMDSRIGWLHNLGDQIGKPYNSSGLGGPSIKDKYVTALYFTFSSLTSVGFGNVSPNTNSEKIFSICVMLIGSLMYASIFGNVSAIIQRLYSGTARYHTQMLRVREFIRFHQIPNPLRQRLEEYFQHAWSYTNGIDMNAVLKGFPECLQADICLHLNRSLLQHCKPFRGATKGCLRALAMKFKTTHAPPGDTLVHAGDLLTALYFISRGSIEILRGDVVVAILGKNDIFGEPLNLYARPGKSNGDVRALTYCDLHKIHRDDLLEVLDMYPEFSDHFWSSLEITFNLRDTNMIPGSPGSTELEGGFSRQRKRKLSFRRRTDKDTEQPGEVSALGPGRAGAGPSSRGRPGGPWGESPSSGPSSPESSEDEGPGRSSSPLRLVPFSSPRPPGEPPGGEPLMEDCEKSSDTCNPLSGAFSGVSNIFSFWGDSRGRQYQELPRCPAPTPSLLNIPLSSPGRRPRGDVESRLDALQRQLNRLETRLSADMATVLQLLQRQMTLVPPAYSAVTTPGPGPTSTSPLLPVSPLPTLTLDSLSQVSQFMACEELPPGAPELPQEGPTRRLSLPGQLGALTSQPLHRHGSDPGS
row,SMILES,"hERG current change (%, negative = inhibition) at 1uM"
1,COc1ccc(/C=N/OCC(=O)NCc2cccs2)c(OC)c1,11.7%
2,O=C(O)C(=O)O.c1cc2c(cc1OCCNC1CCCC1)CCC2,4.25%
3,NNC(=O)c1csc(COc2cc(Cl)cc(Cl)c2)n1,10.1%
4,CC(C)CN(C(=O)c1ccco1)c1nc2ccccc2s1,15.4%
5,Cc1cc(C)cc(NC(=O)N2CCCC2C(=O)Nc2ccc(-n3cnnn3)cc2)c1 (stereo not shown),-6.41%
6,O=C(NCc1ccc(C(F)(F)F)cc1)C12CN(Cc3ccccc3)CC1C(c1cccc([N+](=O)[O-])c1)=NO2 (stereo not shown),16.8%
7,Cc1ccc2c(C(=O)N3CCN(c4ccccc4)CC3)cc(-c3cccnc3)nc2c1C,9.45%
8,COc1ccc(C(=O)O)cc1S(=O)(=O)N1CCSCC1,13.6%
9,CCC(=O)NCc1c(C)c(C)n(Cc2ccccc2)c1-n1cccc1,15.5%
10,CCn1c(CC(=O)Nc2ccc(Cl)c(Cl)c2)nnc1SCc1ccc(Cl)cc1,10.7%
11,CCOC(=O)Cc1csc(SC(C)C(=O)NCC(=O)Nc2ccc(F)c(F)c2F)n1 (stereo not shown),12.6%
12,COc1cc(CC(=O)Nc2ccc(S(=O)(=O)Nc3ncccn3)cc2)cc(OC)c1OC,13.2%
13,c1cncc(Nc2nc(-c3cccs3)cs2)c1,5.99%
14,N#CCCN(C(=O)Cn1nc(C(=O)O)c2ccccc2c1=O)c1ccccc1,13.7%
15,CCOC(=O)C1=NN(c2ccccc2)C2C(=O)N(c3ccccc3OC)C(=O)C12 (stereo not shown),6.51%
16,CC(=O)c1ccc(OCC(O)CN2CCN(c3ccc(F)cc3)CC2)cc1.Cl (stereo not shown),-64.9%
17,COc1ccc(C)cc1N(C(=O)c1ccccc1F)c1nc2ccccc2s1,12.1%
18,CCCCCCCCOc1ccc(C2CC(=O)NC2=O)cc1 (stereo not shown),9.75%
19,Cc1ccc(OCC(=O)Nc2ccc3c(c2)OCCO3)cc1C,13.5%
20,C[C@]12CC[C@@H]3c4ccc(O)cc4CC[C@H]3[C@@H]1C[C@@H](O)[C@@H]2O[C@@H]1O[C@H](C(=O)O)[C@@H](O)[C@H](O)[C@H]1O,13.6%
21,CC(=O)OC(C)=O,13.1%
22,Cc1cccc(NS(=O)(=O)c2cc(C(=O)N3CCCCCC3)ccc2C)c1,-0.295%

row,SMILES,"hERG current change (%, negative = inhibition) at 1uM"
1,CCCNCCC(c1ccco1)c1ccccc1OC (stereo not shown),-15.9%
2,CC/C(C)=C1\SC(N2CCN(C(C)=O)CC2)=NC1=O,9.09%
3,COc1ccc(CC(NC(C)=O)C(=O)NC2CCN(C(=O)c3cnccn3)CC2)cc1 (stereo not shown),2.1%
4,CCS(=O)(=O)c1ccc2oc(SCC(=O)NC(C)C3CC4CCC3C4)nc2c1 (stereo not shown),-3.67%
5,CCC(Sc1nc2c(c(=O)[nH]1)CCC2)C(=O)Nc1cccc(OC)c1 (stereo not shown),-6.65%
6,CSc1ccccc1C(=O)C1CCCN(Cc2c(C)n(C)n(-c3ccccc3)c2=O)C1 (stereo not shown),1.52%
7,Cc1ccc(NC(=O)C2Cc3ccccc3CN2C(=O)c2ccco2)cc1S(=O)(=O)N(C)C (stereo not shown),12.6%
8,CCC1(C)Cc2ccccc2-c2nc(SCC(N)=O)[nH]c(=O)c21 (stereo not shown),17.5%
9,Fc1ccc(CNC(=S)Nc2ccc(Cl)cc2)cc1,7.37%
10,C[C@H](O)C(=O)C1=Nc2c(nc(N)[nH]c2=O)NC1,13.5%
11,Cc1ccc(SCC(=O)Nc2ccc(N3CCOCC3)cc2)cc1C,13%
12,O=C(N/N=C/c1cccc([N+](=O)[O-])c1)c1cc2c(ccc3ccccc32)o1,19%
13,C=CCNC(=O)c1ccccc1NC(=O)C1CC(=O)N(C(C)C)C1 (stereo not shown),5.42%
14,O=C(CN1CCCC1)Nc1ccc(Cl)cc1C(F)(F)F,15%
15,CCOC(=O)N1CCC(NC(=O)c2cc(C(=O)Nc3ccc(F)cc3F)ccc2CO)CC1,4.8%
16,CCOC(=O)C1CCCN(C(=O)CN2C(=O)COc3ccc(C(C)(C)C)cc32)C1 (stereo not shown),-4.47%
17,O=C(Cc1ccc(Cl)c(Cl)c1)N/N=C/c1cccnc1,2.29%
18,COc1cccc(N2C(=O)CC(Sc3nc(C)cc(C)n3)C2=O)c1 (stereo not shown),11.9%
19,Cc1ccc(NC(=O)c2cc(-n3cnnc3)ccc2Cl)cc1,4.15%
20,CC(=O)N1CCc2cc(S(=O)(=O)CCC(=O)NCc3ccc(Cl)cc3)ccc21,11.2%
21,O=[N+]([O-])c1ccc2c3n([n+]([O-])c2c1)CCN=C3c1ccc(Cl)cc1,3.79%
22,Cc1ccc(OC(=O)C2CCN(C(=O)c3ccccc3C)CC2)c(Br)c1,-6.16%

row,SMILES,"hERG current change (%, negative = inhibition) at 1uM"
1,CNS(=O)(=O)c1cccc(C(=O)NCC(C)(C)N2CCCCC2)c1,10.7%
2,CCOc1ccc(CCNC(=O)COC(=O)CNS(=O)(=O)c2ccc(C)cc2)cc1OCC,-0.961%
3,C=CCOCCN(CCOCC=C)C1=NS(=O)(=O)c2ccccc21,2.66%
4,COc1ccc(N2CC(C(=O)NC3=NCCS3)CC2=O)cc1 (stereo not shown),9.17%
5,CC(NS(=O)(=O)c1ccccc1)C(N)=O (stereo not shown),6%
6,COc1nnc(-c2ccc(C)c(S(=O)(=O)NCC3CCCO3)c2)c2ccccc12 (stereo not shown),-0.937%
7,COc1cc(C(=O)O/N=C(\N)c2ccccn2)cc(OC)c1OC,10.7%
8,COC(=O)/C=C/CC(C)OS(N)(=O)=O (stereo not shown),10.7%
9,CC/C(=N/Nc1cccc(C)c1)c1cnnc(SC)n1,8.28%
10,Cn1cc(C(=O)Nc2ccc(Cl)cc2)c(C(F)(F)F)n1,10.2%
11,Cc1cc(C)c2c(n1)SCC(=O)N2CC(=O)Nc1ccc(C)c(C)c1,-2.25%
12,CC(C)CC1CCCCC1OC(=O)C[N+]1(C)CCCCC1.[I-] (stereo not shown),3.8%
13,CCOC(=O)CC(=O)NC1(Cc2ccc(O)cc2)CCCCC1,6.11%
14,CC(=O)Nc1ccc(N/C=C/C(=O)C(C)(C)C)cc1,5.65%
15,CCn1c(C(=O)O)c(CC(=O)Nc2ccccc2F)c2ccccc21,14.9%
16,Cc1ccc2nc3c(cc2c1)c(NC(=O)c1ccccn1)nn3CC(C)C,-4.52%
17,Cc1ccccc1NC(=O)/C=C/c1cccs1,-1.78%
18,CCCn1c(=O)c2ccccc2n2c(SCC(=O)c3ccc(CC)cc3)nnc12,4.22%
19,CC1CCC(NC(=O)C2CCN(c3cnccn3)CC2)CC1 (stereo not shown),15.7%
20,Cc1cc(C)cc(-n2c(C)cc(C(=S)N3CCOCC3)c2C)c1,3.64%
21,O=C(NCc1ccccn1)Nc1ccc(Br)cc1,3.98%
22,O=C(COc1ccc(F)cc1Br)N1CCN(S(=O)(=O)/C=C/c2ccccc2)CC1,3.2%

row,SMILES,"hERG current change (%, negative = inhibition) at 1uM"
1,S=C(NCc1ccccc1)Nc1nccs1,0.125%
2,COc1ccccc1OCC(=O)Nc1ccc(S(=O)(=O)NC(C)=O)cc1,15.2%
3,O=S(=O)(Nc1c(O)ccc2ccccc12)c1ccc(F)cc1,10.5%
4,CCc1noc(C)c1C(=O)N1CCN(S(=O)(=O)c2cccc(C(F)(F)F)c2)CC1,2.08%
5,CCOc1ccccc1Nc1nc(-c2sc(C)nc2C)cs1,22.5%
6,CCOc1ccc(C(=O)Nc2c3c(nn2C(C)(C)C)CSC3)cc1OCC,-0.169%
7,ONC(=Nc1ccc(Cl)cc1)c1ccccc1,-0.216%
8,Cc1cccc(OCc2nnc(SCC(=O)Nc3cccc(C(=O)N4CCOCC4)c3)n2C)c1,6.83%
9,COC(=O)c1ccccc1NC(=O)Cn1nnc(-c2ccc3c(c2)OCO3)n1,7.32%
10,O=C(Oc1ccc(C(=S)N2CCOCC2)cc1)c1ccc([N+](=O)[O-])cc1[N+](=O)[O-],10.9%
11,CCc1c(C(=O)N/N=C/c2sccc2C)nnn1-c1nonc1N,16.4%
12,Cc1nnc(SCC(=O)NC23CC4CC(CC(C4)C2)C3)n(N)c1=O,8.13%
13,Cc1nc2ccc(NC(=O)c3cc(S(=O)(=O)N4CCOCC4)ccc3C)cc2s1,17.3%
14,COc1ccc2cc(C(=O)CS(=O)(=O)c3ccccc3)c(=O)oc2c1,12%
15,O=S(=O)(c1cccs1)N1CCCc2ccccc21,1.4%
16,O=C(O)/C(=C\c1ccc(C(F)(F)F)cc1)c1ccc(S(=O)(=O)N2CCCC2)s1,11.5%
17,O=C(OCC1OC(n2ncc(=O)[nH]c2=O)C(OC(=O)c2ccccc2)C1OC(=O)c1ccccc1)c1ccccc1 (stereo not shown),15.7%
18,O=C(c1cccc(C(F)(F)F)c1)N(c1ccccn1)C1CCCCC1,10.2%
19,COc1ccc(-c2c3c(=O)n(C)c(=O)n(C)c3cn2Cc2ccccn2)cc1,10.5%
20,CCc1cc2cc3c(cc2nc1SCC(=O)N1CCN(C(=O)c2ccco2)CC1)OCO3,-5.9%
21,O=C(NCc1cccnc1)c1cc2nc(-c3ccc4c(c3)OCO4)cc(C(F)(F)F)n2n1,6.56%
22,COC(=O)C1CCN(c2c([N+](=O)[O-])cc(C(F)(F)F)cc2[N+](=O)[O-])CC1,9.95%
